The full ranking holds about 33,000 sequences; the median of “E-score (-0.5 to 0.5)” is about -0.054, and the highest 2% start at about 0.35. The list shows a part of the results.

This experiment deals with T1, Stb5 (UniProt P38699).
T1 sequence: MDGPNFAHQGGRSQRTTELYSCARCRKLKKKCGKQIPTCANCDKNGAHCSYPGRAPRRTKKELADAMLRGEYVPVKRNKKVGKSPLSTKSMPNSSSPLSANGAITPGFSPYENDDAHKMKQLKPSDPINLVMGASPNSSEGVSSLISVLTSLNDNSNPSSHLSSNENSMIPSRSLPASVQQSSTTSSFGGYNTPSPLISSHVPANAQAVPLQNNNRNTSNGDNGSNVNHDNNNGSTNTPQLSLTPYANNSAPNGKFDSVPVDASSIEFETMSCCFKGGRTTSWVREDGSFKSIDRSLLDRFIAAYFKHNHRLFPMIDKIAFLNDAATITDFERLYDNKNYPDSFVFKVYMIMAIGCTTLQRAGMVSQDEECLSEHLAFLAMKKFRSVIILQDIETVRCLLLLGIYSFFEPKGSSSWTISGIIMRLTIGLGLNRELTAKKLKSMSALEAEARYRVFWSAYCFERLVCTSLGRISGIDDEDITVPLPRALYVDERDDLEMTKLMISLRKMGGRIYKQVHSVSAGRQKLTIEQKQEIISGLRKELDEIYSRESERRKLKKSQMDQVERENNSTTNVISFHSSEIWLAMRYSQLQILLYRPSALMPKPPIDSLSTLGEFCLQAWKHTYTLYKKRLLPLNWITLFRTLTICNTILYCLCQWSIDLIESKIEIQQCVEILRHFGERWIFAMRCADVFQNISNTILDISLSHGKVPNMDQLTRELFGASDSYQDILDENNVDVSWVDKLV
Nature of the experiment: PBM E-score (8-mer binding enrichment) (E-score (-0.5 to 0.5)); higher = stronger / more preferred TF binding; most listed sequences are background and not binding sites. The following applies: protein concentration: 200 nM; construct: GST-full length. An outline of the steps:
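Universal all-10-mer Agilent arrays, fresh or stripped once, were converted to double-stranded form by primer extension. GST-tagged yeast transcription factors from PURExpress in vitro transcription/translation, full-length or DNA-binding domain only, were applied at about 100-200 nM and detected with fluorescent anti-GST. After masliner normalisation, the Universal PBM Analysis Suite scored each ungapped eight-base word together with its reverse complement by E-score.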
Turning to AATTTACT, the “PBM E-score” value was -0.0476.

For the sequence AGACCGCC, the “PBM E-score” value was found to be 0.364.

With ATCACCAA, the “PBM E-score” value is -0.0569.

For the sequence CCCGGACG, the “PBM E-score” value stood at 0.196.

With ATCCCACC, the “PBM E-score” value worked out at 0.225.

In the case of CGCATTTA, the “PBM E-score” value worked out at 0.265.

For CCCAGAGG, the “PBM E-score” value was -0.0976.

Turning to ATCCGAAG, the “PBM E-score” value is 0.0691.

Take AGGCGCAA: the “PBM E-score” value was -0.0175.

Regarding TTCCGCAA, the “PBM E-score” value worked out at 0.155.

With ATATCCCG, the “PBM E-score” value came to 0.275.

Consider CCTCGTGC, for which the “PBM E-score” value amounted to 0.0262.

On to CAAGCGAC, for which the “PBM E-score” value was -0.0397.

Take GCTTAGCA: the “PBM E-score” value was 0.0208.

Take ACTCATAG: the “PBM E-score” value was -0.0888.

As to CCTCGGAA, the “PBM E-score” value was -0.0398.

Turning to GCACTAGA, the “PBM E-score” value was -0.0524.

As for ATACGTTA, the “PBM E-score” value was -0.217.

AACGATAG: the “PBM E-score” value is -0.0898.

For ATCAGAGC, the “PBM E-score” value is -0.0152.

For CTAGCCCC, the “PBM E-score” value was 0.256.

With ACCCTCTA, the “PBM E-score” value was -0.276.

On to ATCCGGAA, for which the “PBM E-score” value came out at 0.139.

With AACGACAC, the “PBM E-score” value is -0.0467.

As to ATAGTCCC, the “PBM E-score” value is 0.314.

In the case of AACTGCGT, the “PBM E-score” value was -0.00018.

Turning to ACATGGAT, the “PBM E-score” value is -0.173.

Consider AAAATTAT, for which the “PBM E-score” value was 0.114.

Regarding CATCTTTA, the “PBM E-score” value was found to be 0.0279.

Turning to ATCTTCAT, the “PBM E-score” value was -0.0151.

On to CTTGTTTC, for which the “PBM E-score” value is -0.262.

As to GATGAACA, the “PBM E-score” value is -0.0449.

Consider CTCCTCAC, for which the “PBM E-score” value was -0.203.

In the case of GTAGTCCA, the “PBM E-score” value is -0.0248.

Regarding GCGCGGCA, the “PBM E-score” value is 0.237.

For the sequence TACCGTAA, the “PBM E-score” value is 0.233.

For the sequence AAAGGGTC, the “PBM E-score” value is -0.0495.

In the case of AGGGCACG, the “PBM E-score” value is 0.00251.

As to GCTATCGA, the “PBM E-score” value was -0.106.

On to TCAACACA, for which the “PBM E-score” value was -0.297.

As to AGTCCAAT, the “PBM E-score” value is -0.041.

Turning to CTCAATAA, the “PBM E-score” value is -0.0345.

For the sequence CCCGGTAC, the “PBM E-score” value was 0.263.

CCTGCACA: the “PBM E-score” value was -0.243.

In the case of ATGCATAA, the “PBM E-score” value was -0.175.

Regarding CTTGGTGC, the “PBM E-score” value is -0.145.

For the sequence ATGCATCC, the “PBM E-score” value was -0.104.

Regarding GAATCCTA, the “PBM E-score” value was -0.12.

As to CTAGGGCA, the “PBM E-score” value is -0.149.

Take AGTCTCGC: the “PBM E-score” value was -0.249.

Consider AAAGCCTA, for which the “PBM E-score” value is -0.183.

For the sequence TCTCTTCA, the “PBM E-score” value is -0.0422.

Regarding TAGGTGAA, the “PBM E-score” value was -0.0434.

On to ATGTGTTA, for which the “PBM E-score” value was -0.227.

For CTCCCCAG, the “PBM E-score” value was -0.131.

In the case of GCGACCAA, the “PBM E-score” value is -0.153.

For CGCGTAAA, the “PBM E-score” value was found to be 0.0087.

In the case of AACGGCAA, the “PBM E-score” value amounted to 0.107.

For CATTCATA, the “PBM E-score” value was 0.0938.

Turning to ACCCTAAG, the “PBM E-score” value was -0.227.

Consider CACAGAAA, for which the “PBM E-score” value was -0.181.

For CCCAAGTC, the “PBM E-score” value is -0.175.

As for CGGCATAA, the “PBM E-score” value is 0.343.

On to GACTATGA, for which the “PBM E-score” value was -0.115.

For CCTCTCAC, the “PBM E-score” value was -0.254.

TTAACCAA: the “PBM E-score” value was -0.0609.

As to GAAACGCA, the “PBM E-score” value was -0.0286.

Regarding CTCAGGGC, the “PBM E-score” value was -0.0544.

CTGCCTCC: the “PBM E-score” value was -0.0731.

Take TCCCTACA: the “PBM E-score” value was -0.00245.

In the case of AAGCCGGG, the “PBM E-score” value was 0.142.

For the sequence AAAGGGGC, the “PBM E-score” value was -0.00863.

Take GAATACCA: the “PBM E-score” value is -0.0851.

As for GTAGGAAC, the “PBM E-score” value is -0.15.

Consider CGTTGTGA, for which the “PBM E-score” value is 0.0146.

As to CTTCCGCA, the “PBM E-score” value came out at 0.0499.

Turning to CTATGGAA, the “PBM E-score” value was -0.0819.

CTGGAAAG: the “PBM E-score” value was -0.174.

Regarding ACATATCA, the “PBM E-score” value was 0.0289.

As for CGAGTGGC, the “PBM E-score” value was -0.104.

Regarding CAAACATG, the “PBM E-score” value is -0.252.

ACCTTGGC: the “PBM E-score” value is -0.144.

Turning to AGCCAAAA, the “PBM E-score” value was -0.119.

Take CACAATAC: the “PBM E-score” value amounted to 0.0242.

For the sequence ACGTCGTC, the “PBM E-score” value is -0.0716.

On to TGCGTCCA, for which the “PBM E-score” value is -0.235.

Source of the values: the supplement of paper PMC3334620.
